Screen size: about 330,000 compounds; about 1,700 (0.52%) were called active. Inconclusive results, whose numbers are uncertain, are shown with a selection of clear calls. Calls follow the shape of the dose curve; as a rule, active = well fitted inhibition curve with a large enough effect; inconclusive = small, poorly fitted or top-dose-only effect; inactive = no such curve, though single readings can be large or run the other way. Potencies beside an inconclusive call are fits to weak or partial responses and may not hold up.
These molecules were tested against Beta-lactamase (Escherichia coli (strain K12)) (UniProt P00811) (assay: qHTS Inhibitors of AmpC Beta-Lactamase (assay without detergent)). Conditions: AmpC nitrocefin hydrolysis, absorbance 480 nm, 0.0001% Triton; activity change, negative = inhibition: at 57.1 µM (top of the series) unless noted.
UniProt P00811, sequence (P00811 whole entry, looked up): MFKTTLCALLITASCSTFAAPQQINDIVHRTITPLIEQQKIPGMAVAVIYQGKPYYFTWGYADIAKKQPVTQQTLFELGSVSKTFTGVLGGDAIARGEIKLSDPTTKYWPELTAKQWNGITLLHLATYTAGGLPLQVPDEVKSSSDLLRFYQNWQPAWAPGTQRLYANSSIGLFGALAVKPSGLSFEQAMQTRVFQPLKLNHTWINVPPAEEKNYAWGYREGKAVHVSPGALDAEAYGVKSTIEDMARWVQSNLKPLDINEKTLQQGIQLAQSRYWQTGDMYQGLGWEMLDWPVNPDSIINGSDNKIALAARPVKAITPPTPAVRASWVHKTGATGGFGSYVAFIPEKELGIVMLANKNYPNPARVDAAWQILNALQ
Summary of the method: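 AmpC (5.3 nM in the dispensed reagent) in 20 mM phosphate pH 7.0 with 0.01% (detergent screen) or 0.0001% Triton X-100 was preincubated with compounds for 15 min at room temperature. Nitrocefin was then added from an 800 uM solution, and hydrolysis was followed at 480 nm.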
For `Cc1ccccc1/C=C1\SC(=S)N(/N=C/c2cc([N+](=O)[O-])ccc2O)C1=O`, the Potency was active: 28.2 µM.
`FC(F)(F)c1cccnc1N1CCN(c2ncnc3nc[nH]c23)CC1` was tested, and the Potency was inconclusive: 89.1 µM [inhibitor, partial curve, poor fit].
For `CCN(CC)c1ccc(/C=N/NC(=S)NCc2ccccc2)c(O)c1`, the Potency was inconclusive: 28.2 µM [inhibitor, single point].
In the case of `COc1ccc(-c2csc(NC(=S)NC(=O)c3cccs3)n2)cc1OC`, the “activity change, negative = inhibition” value is reported as inactive: -8.22%.
For `CC(C)(C)C1CCC2(CC1)Nc1cccc3cccc(c13)N2`, the Potency was active: 12.6 µM.
`O=S(=O)(c1cnc[nH]1)N1CCN(c2ccc(F)cc2)CC1` was tested, and the “activity change, negative = inhibition” value was inactive: -0.87%.
In the case of `C/C(CC(=O)Nc1ccc(Cl)c(C(F)(F)F)c1)=N\NC(=O)c1cc2ccccc2cc1O`, the Potency is reported as active: 10 µM.
With `Nc1cc(OC(=O)c2ccccc2Br)nn1S(=O)(=O)c1ccccc1` the Potency was inconclusive: 5.62 µM [inhibitor, full curve, poor fit].
For `O=C(N/N=C\c1cccc(F)c1)c1ccc(Cn2cc(Br)c([N+](=O)[O-])n2)o1`, the Potency was inconclusive: 25.1 µM [inhibitor, single point].
In the case of `CCN1C(=O)S/C(=C/c2ccc(Sc3nc4ccccc4[nH]3)o2)C1=O`, the Potency is reported as inconclusive: 6.31 µM [inhibitor, single point].
In the case of `O=C(N/N=C/c1c[nH]c2ccccc12)c1ccc(Br)cc1`, the Potency is reported as active: 20 µM.
With `Cc1cc(=O)[nH]c2nnc(SCC(=O)N3CC(C)OC(C)C3)n12` (configuration not stated) the Potency was inconclusive: 35.5 µM [inhibitor, single point].
For `CCN(CC)CCn1c2c(c(SCC(=O)Nc3ccc(C)c(F)c3)nc1=O)CCCC2`, the “activity change, negative = inhibition” value was inactive: 18.1%.
For `COc1ccc(/C=C2\SC(=NCc3ccccc3)N(Cc3ccccc3)C2=O)cc1OC`, the Potency was inconclusive: 0.282 µM [inhibitor, full curve, poor fit].
For `Clc1ccc(C2CC(c3cccs3)n3ncnc3N2)cc1Cl` (configuration not stated), the Potency was active: 0.708 µM.
With `O=C(c1ccco1)N1CCN(c2nc3ccccc3n3nnnc23)CC1` the “activity change, negative = inhibition” value was inactive: -12.3%.
`CCCCCCC(=O)Oc1ccc(N2C(=O)CCC2=O)cc1` was tested, and the Potency was inconclusive: 39.8 µM [inhibitor, single point].
For `CC(=O)Nc1nc2c(ncn2COCCOC(C)=O)c(=O)[nH]1`, the “activity change, negative = inhibition” value was inactive: -10.4%.
With `CCOCCCNC(=S)N1C2CCC1CC(NC(=O)NC13CC4CC(CC(C4)C1)C3)C2` (configuration not stated) the “activity change, negative = inhibition” value was inactive: 136%.
`CCCCn1c(C)cc2c(c1=O)C1O[C@](c3ccsc3)(Cc3ccccc31)O2` was tested, and the Potency was inconclusive: 8.91 µM [inhibitor, single point].
`Cc1ccc(-c2nc3ccccc3n2C)o1` was tested, and the “activity change, negative = inhibition” value was inactive: -15.9%.
`COc1cc(/C=C/C(O)=C/C(=O)/C=C/c2ccc(O)cc2)ccc1O` was tested, and the “activity change, negative = inhibition” value was inactive: -17.6%.
With `Cc1[nH]c2ccc(-c3n[nH]c(=S)n3C)cc2c1C` the Potency was inconclusive: 31.6 µM [inhibitor, single point].
`c1ccc(C2CC3CC(c4ccco4)N2O3)cc1` (configuration not stated) was tested, and the Potency was inconclusive: 5.01 µM [inhibitor, single point].
In the case of `Nc1ccc(S(=O)(=O)Nc2nc(-c3ccccc3)cc(-c3ccccc3)n2)cc1`, the Potency is reported as inconclusive: 39.8 µM [inhibitor, single point].
In the case of `Cc1nn(C(=O)c2cc3sccc3[nH]2)c(C)c1C`, the Potency is reported as inconclusive: 4.47 µM [inhibitor, single point].
In the case of `COc1ccc(C)cc1Cn1c(S(C)(=O)=O)nc2ccccc21`, the Potency is reported as inconclusive: 5.01 µM [inhibitor, single point].
In the case of `COc1cccc(NC(=O)CSc2nnc(NC(=O)C3CC3)s2)c1`, the “activity change, negative = inhibition” value is reported as inactive: -27.5%.
With `Cc1ccc(NC(=S)NCc2ccc(Cl)cc2)c(OC(F)F)c1` the Potency was inconclusive: 8.91 µM [inhibitor, full curve, poor fit].
With `Cn1c(=O)c2c(nc(N3CCCCC3)n2CCNC2=NCCC2)n(C)c1=O` the Potency was inconclusive: 0.708 µM [inhibitor, partial curve, poor fit].
`Cc1ccc2[nH]c3c(N4CCOCC4)ncnc3c2c1` was tested, and the “activity change, negative = inhibition” value was inactive: -17.1%.
In the case of `Cc1ccc(/C(=N\O)c2oc3c(C)c4oc(=O)cc(C)c4cc3c2C)cc1`, the Potency is reported as inconclusive: 3.16 µM [inhibitor, partial curve].
In the case of `CC(=O)c1ccc(NC(=O)Nc2ccc(S(=O)(=O)N3CCCC3)cc2)cc1`, the Potency is reported as active: 14.1 µM.
With `O=C(CN1C(=O)/C(=C\c2ccc(C(F)(F)F)cc2)Sc2ccccc21)NCc1ccco1` the Potency was active: 10 µM.
For `O=C(/C=C/Nc1ccc([N+](=O)[O-])cc1Br)c1cccc2ccccc12`, the Potency was inconclusive: 17.8 µM [inhibitor, partial curve].
`Cc1ccc(NS(=O)(=O)c2ccc3c(c2)CC(=O)N3)cc1C` was tested, and the Potency was inconclusive: 20 µM [inhibitor, single point].
In the case of `COc1ccc(S(=O)(=O)N2CCCCC2)cc1NC(=O)c1[nH]c(C)c(C(C)=O)c1C`, the “activity change, negative = inhibition” value is reported as inactive: -25.9%.
For `CC1(C(=O)OCC(=O)Nc2ccc(C(N)=O)cc2)CC1(Cl)Cl` (configuration not stated), the “activity change, negative = inhibition” value was inactive: -24.8%.
In the case of `C=CCn1c(SCC(=O)N2CCc3ccccc3C2)nc2sc(C)cc2c1=O`, the “activity change, negative = inhibition” value is reported as inactive: -13%.
For `O=C1NC(=O)N(Cc2ccc(F)cc2)C(=O)/C1=C\c1ccc([N+](=O)[O-])s1`, the Potency was active: 11.2 µM.
In the case of `Cc1cc(C)c(-c2cc(C(=O)Nc3c(C)n(C)n(-c4ccccc4)c3=O)[nH]n2)c(O)c1`, the Potency is reported as inconclusive: 0.282 µM [inhibitor, full curve, poor fit].
With `O=C(NNC(=O)c1cc2ccccc2cc1O)Nc1ccc(Br)cc1` the Potency was inconclusive: 39.8 µM [inhibitor, single point].
For `O=C(O)c1cccc(-n2cccc2/C=C2/NC(=O)N(c3ccc(Cl)cc3)C2=O)c1`, the Potency was active: 12.6 µM.
`COc1ccc(OC)c(/C=N/NC(=O)c2ccc(Cn3cc([N+](=O)[O-])cn3)o2)c1` was tested, and the Potency was active: 39.8 µM.
With `Cc1ccc(C(=O)NCCSc2snnc2C)cc1` the Potency was inconclusive: 6.31 µM [inhibitor, single point].
With `Cc1ccc(C)c(NC(=S)NNC(=O)c2sccc2C)c1` the “activity change, negative = inhibition” value was inactive: -16.6%.
With `Nc1c2nc(-c3ccccc3Cl)[nH]c(=O)c2nc(=O)n1-c1ccccc1` the Potency was inconclusive: 25.1 µM [inhibitor, single point].

— PubChem BioAssay AID485341 (National Center for Advancing Translational Sciences (NCATS), 2010)
Also: nearly all actives have a fitted effect of over 20% in size.
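For activity change, negative = inhibition in this document: plate controls were no compound for no effect and no enzyme for full effect.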
Potency is read from the fitted curve at half-maximal effect; tags tell the direction and shape of the fitted curve.
